Data from the supplement of paper PMC3334620.
Whole data set: some 33,000 sequences, median “E-score (-0.5 to 0.5)” near -0.053, cut for the highest 2% near 0.37. This is one part of the list.

Each sequence was assayed against Hap1 (UniProt P0CE41) (assay: PBM E-score (8-mer binding enrichment) (E-score (-0.5 to 0.5)); higher = stronger / more preferred TF binding; most listed sequences are background and not binding sites). Conditions: protein concentration: 200 nM; construct: GST-DNA-binding domain.
Method: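 Universal 'all 10-mer' protein binding microarrays (Agilent AMADID 015681) probed with GST-tagged S. cerevisiae TFs (full-length or DBD) made by in vitro transcription/translation (PURExpress), about 100-200 nM. Bound TF was detected with fluorescent anti-GST. Each ungapped 8-mer (which stands for itself and its reverse complement) is scored by the PBM enrichment score (E-score), a modified Wilcoxon-Mann-Whitney statistic from -0.5 to +0.5, computed with the Universal PBM Analysis Suite. Scale: above 0.35 generally sequence-specific binding.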

Sequence of UniProt P0CE41 (P0CE41 whole entry, the tested form may be a part): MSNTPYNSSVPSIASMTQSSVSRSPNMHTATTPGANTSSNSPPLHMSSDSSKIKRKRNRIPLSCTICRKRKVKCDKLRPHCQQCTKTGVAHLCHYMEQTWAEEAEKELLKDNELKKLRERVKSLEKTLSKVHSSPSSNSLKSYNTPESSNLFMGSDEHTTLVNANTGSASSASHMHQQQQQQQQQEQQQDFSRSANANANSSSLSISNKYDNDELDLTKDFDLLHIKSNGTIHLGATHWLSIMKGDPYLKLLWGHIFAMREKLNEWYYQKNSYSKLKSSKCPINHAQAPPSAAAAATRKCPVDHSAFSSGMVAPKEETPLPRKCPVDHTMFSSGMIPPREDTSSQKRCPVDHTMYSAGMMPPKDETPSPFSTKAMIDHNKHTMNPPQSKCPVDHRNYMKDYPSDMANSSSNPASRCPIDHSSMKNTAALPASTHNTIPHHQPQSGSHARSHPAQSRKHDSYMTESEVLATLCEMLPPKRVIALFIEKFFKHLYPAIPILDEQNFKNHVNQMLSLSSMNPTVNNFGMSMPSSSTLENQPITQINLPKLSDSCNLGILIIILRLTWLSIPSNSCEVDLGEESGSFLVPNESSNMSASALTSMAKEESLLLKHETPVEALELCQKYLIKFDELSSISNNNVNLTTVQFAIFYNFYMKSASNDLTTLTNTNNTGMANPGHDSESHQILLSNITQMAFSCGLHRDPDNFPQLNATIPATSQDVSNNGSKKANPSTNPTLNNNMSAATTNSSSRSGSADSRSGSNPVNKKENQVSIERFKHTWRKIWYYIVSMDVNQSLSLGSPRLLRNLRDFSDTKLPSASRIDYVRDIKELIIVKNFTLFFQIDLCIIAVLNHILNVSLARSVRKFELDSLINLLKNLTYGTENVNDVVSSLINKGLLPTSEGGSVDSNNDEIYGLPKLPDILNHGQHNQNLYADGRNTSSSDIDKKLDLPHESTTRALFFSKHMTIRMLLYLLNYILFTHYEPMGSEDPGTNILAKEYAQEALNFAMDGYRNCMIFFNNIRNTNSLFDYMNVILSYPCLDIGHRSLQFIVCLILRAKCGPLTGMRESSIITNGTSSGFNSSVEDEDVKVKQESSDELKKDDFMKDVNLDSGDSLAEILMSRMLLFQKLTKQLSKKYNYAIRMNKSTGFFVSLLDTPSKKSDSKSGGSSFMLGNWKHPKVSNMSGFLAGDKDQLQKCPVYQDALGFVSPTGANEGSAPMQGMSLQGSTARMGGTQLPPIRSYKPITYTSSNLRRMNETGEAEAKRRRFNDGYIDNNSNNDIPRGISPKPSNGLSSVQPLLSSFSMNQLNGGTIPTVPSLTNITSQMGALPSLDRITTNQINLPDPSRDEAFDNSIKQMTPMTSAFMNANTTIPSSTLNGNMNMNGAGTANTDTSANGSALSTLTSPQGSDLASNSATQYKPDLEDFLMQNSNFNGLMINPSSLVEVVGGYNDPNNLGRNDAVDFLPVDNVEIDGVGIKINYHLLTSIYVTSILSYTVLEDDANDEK

Sequence | PBM E-score
ACGGGAAG | -0.0758
GTTCCTTA | -0.0962
CAGAGATA | -0.182
AGTCCTGG | -0.193
AACTTTGA | -0.208
ACCCGTCG | -0.00468
AGGAAAGA | -0.275
CGCATCTC | 0.0707
AGCACTCG | 0.129
CAAAGATG | -0.0851
TCCTCGCA | -0.198
CCATCCTC | 0.0314
GAAACACA | 0.0173
GACCCATC | 0.0237
CAGCGACA | -0.24
CGCGGAAA | 0.337
CTGCTGCA | -0.238
CGCAGAAC | 0.0877
CATTTCGG | 0.28
ACGGATAA | 0.282
CCACTTCC | -0.0712
AGTTTGAC | -0.0994
ATCAAGAC | -0.0493
CCACGCTA | -0.203
CAGTGTCA | -0.142

Sequence | PBM E-score
CTCTACGA | -0.3
TACATAGA | -0.0192
AGCCTCCG | 0.192
GATTGGAA | -0.0798
GATACTAA | 0.17
AAGTCATA | -0.137
AGAGGGGA | -0.0354
GTCTCACA | -0.0568
AACCGGCG | 0.382
ATGGAAAG | -0.0424
GCAACCGC | -0.0271
ACGCAAGA | -0.0214
ACAGGTTG | -0.126
CCGTTTCA | 0.166
CGCTCCCC | -0.0869
TCCTCAAA | -0.207
GGCCGACC | 0.315
TATGCAAA | -0.357
AAATGCTA | -0.0409
AGAATATA | -0.141
AACGGGCA | 0.0155
AATGCATC | -0.156
ACGATTCA | -0.052
AGGGTAAT | -0.012
CCTCGTCA | -0.161

Sequence | PBM E-score
ACTCAGTG | -0.193
CTAGTTGA | -0.229
CCCTGTAA | -0.102
AAAAAGCT | -0.177
CTCACTAC | -0.0522
AATTAGAG | -0.122
AGGTTAAA | -0.0926
CGAGGGCG | 0.124
ACACAGAC | -0.131
ATATATGG | -0.00244
ACCATATC | 0.0581
CAGCTTGA | -0.187
AGTCTAAG | 0.0623
AGTACATA | -0.0856
GCAGTTCC | 0.00727
ATTCTCAA | -0.157
GAGAGACA | -0.0896
CGTAATCC | 0.213
ACTGTACC | 0.0504
AGCCGCAG | -0.0372
AGATAAGG | 0.0689
AGGTATAT | -0.261
ACAAGCCT | -0.166
GGTAGCTA | -0.194
TAGTGACA | -0.128

Sequence | PBM E-score
GTCTGCAA | -0.184
AGGGGATC | -0.182
ATTGTCAG | -0.199
AGCGACCC | 0.142
CGGAGGCC | 0.219
CACTGGCA | -0.198
TCATACAA | 0.0241
CCAGCTCG | 0.0135
ATATTCTG | 0.04
CTATTGAA | -0.0758
AATACGTC | 0.135
CTTACGCA | -0.171
CTAAGGTA | -0.0508
ACTTGTCC | 0.152
ATTACATC | 0.0813
ATTAGCGA | 0.128
TTAAGTAA | -0.00225
CTAAGGAC | -0.218
ATTTATGC | -0.066
GACAAAAC | 0.0411
ACGCTTAG | -0.177
AATCGTCT | -0.193
AGACTACA | -0.204
CAGGTTCG | -0.0124
AGTGTATG | 0.0704

Sequence | PBM E-score
AGGCGTCA | -0.19
AAGCATTC | -0.0448
ATTCCGAG | 0.397
CGGGGACC | 0.255
ACAGGTGC | -0.0571
AGTGCCAG | -0.013
ACGGGCGA | 0.333
ACGTAGTA | -0.0894
ACTGATGG | -0.192
CAACAGCC | -0.0502
CCGGTACA | 0.367
CACGAAGA | -0.276
ATGTCATC | -0.0583
ACACGCTC | -0.0124
GGGGCGCA | -0.255
ACATTGAA | -0.105
ATCTAGCC | 0.00196
CAGACTCG | -0.241
ACCTCAGC | -0.1
CTTGCCGA | 0.0417
ATAACCTA | -0.219
CCGCACCG | 0.305
ATTAGCTC | 0.0644
AGGGCATG | -0.105
AGCCTACA | -0.226

Sequence | PBM E-score
ACCGTGAA | 0.126
GGGCCTGA | -0.117
CACTCGCC | 0.128
GACGAATA | 0.102
CGTACAGA | -0.185
ATCTTCAA | -0.235
AATATGAG | -0.138
AAGGAATG | -0.155
AAATTATT | 0.0461
CCCGAATA | 0.331
AAGTAGAC | -0.0772
ACACAGGG | -0.139
GGGCTTGA | -0.292
CCAATTGC | -0.107
TGCTGTAA | -0.0487
CATGGCAA | -0.211
AACCTGAA | -0.254
GCCGAACA | 0.233
TTCAACAA | -0.0945
CCAACTAG | -0.272
ACCTTGCT | -0.142
ATATGGAT | -0.174
TAGCGGAA | 0.298
ATCCACTG | -0.041
ACAGCTAG | -0.142

Sequence | PBM E-score
CGGCACGC | 0.161
GGGGATCA | 0.0146
CTGTCTTC | -0.0708
CAAAGCAC | -0.138
ACTTCGGG | 0.247
AAAGTCCC | 0.0658
GATAGAGC | 0.132
AAAGTTCA | 0.00735
ACTTTACG | -0.0973
TGCCAAAA | -0.143
CGTGGGAA | -0.241
GTATTAAC | 0.218
AGCAGATA | 0.00637
CTTGCATA | -0.0856
GACTCAAC | 0.0012
ATTTTGAA | -0.0564
ATTTACGG | 0.238
GATACAAC | 0.215
TGCATGAA | -0.158
CCACTAAC | -0.171
CACCGTCG | 0.202
ATTTAGCC | 0.143
